The campaign covered roughly 310,000 compounds. About 2,200 (0.71%) showed an effect of 50% or more. The effect is printed as a negative number. Some of the results follow.
Biological target: human ether-à-go-go-related gene (hERG) potassium channel (human, UniProt Q12809)
Assay: primary screen, population patch clamp on CHO cells stably expressing hERG

human ether-à-go-go-related gene (hERG) potassium channel, sequence (Q12809 whole entry, looked up): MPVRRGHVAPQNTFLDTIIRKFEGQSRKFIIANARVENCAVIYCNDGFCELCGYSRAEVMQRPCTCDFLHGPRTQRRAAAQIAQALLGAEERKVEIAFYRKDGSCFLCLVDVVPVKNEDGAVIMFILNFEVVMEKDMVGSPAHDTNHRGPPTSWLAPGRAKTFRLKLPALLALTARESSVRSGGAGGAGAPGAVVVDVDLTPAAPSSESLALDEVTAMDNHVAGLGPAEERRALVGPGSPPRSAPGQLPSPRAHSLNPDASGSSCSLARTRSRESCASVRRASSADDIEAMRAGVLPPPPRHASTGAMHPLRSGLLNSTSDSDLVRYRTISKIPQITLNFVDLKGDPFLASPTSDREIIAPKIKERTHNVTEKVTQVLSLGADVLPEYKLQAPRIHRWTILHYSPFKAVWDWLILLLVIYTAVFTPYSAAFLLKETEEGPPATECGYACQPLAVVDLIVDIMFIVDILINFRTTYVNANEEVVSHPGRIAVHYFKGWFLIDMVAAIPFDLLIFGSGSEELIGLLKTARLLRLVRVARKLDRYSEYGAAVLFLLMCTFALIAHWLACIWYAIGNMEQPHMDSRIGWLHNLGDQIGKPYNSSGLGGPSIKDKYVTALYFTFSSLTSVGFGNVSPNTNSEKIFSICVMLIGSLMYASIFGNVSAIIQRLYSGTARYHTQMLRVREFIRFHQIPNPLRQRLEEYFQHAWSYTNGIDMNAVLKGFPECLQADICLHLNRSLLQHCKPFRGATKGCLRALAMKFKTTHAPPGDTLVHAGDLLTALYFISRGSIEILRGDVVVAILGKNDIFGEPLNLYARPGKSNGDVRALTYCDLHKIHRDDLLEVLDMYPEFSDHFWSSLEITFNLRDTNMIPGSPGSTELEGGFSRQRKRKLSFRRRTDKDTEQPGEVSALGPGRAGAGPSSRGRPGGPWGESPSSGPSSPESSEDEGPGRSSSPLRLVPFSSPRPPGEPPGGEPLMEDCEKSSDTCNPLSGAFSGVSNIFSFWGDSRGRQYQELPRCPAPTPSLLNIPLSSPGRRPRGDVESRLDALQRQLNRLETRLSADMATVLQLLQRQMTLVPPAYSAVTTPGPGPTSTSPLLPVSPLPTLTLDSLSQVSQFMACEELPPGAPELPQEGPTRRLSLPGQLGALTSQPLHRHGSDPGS

Row | SMILES | hERG current change (%, negative = inhibition) at 1uM [%]
1 | NC(=S)Nc1ccc(C(F)(F)F)cc1Cl | 11.9
2 | CCC(C(=O)NCc1ccco1)n1nc(-c2ccc(OC)cc2)ccc1=O (centres unmarked) | 0.708
3 | CN(C)CCOC1c2ccccc2C=Cc2ccccc21.O=C(O)/C=C\C(=O)O | 12.3
4 | COc1ccc(OCC(O)Cn2c(N3CCCCC3)nc3c2c(=O)n(C)c(=O)n3C)cc1 (centres unmarked) | 0.4
5 | COc1ccc(C2=NS(=O)(=O)N(C)C(C(=O)N3CCC(C(N)=O)CC3)=C2)cc1 | -8.49
6 | COc1ccc(-c2cnn3cc(-c4cccc(Cl)c4)cnc23)cc1 | 11.9
7 | COC(CNC(=O)c1cn(C)c2ccc(S(=O)(=O)N3CCOCC3)cc2c1=O)OC | 12.9
8 | CCCC(C(=O)NC1CCCC1)N(CC1CCCO1)C(=O)CNS(=O)(=O)c1ccc(F)cc1 (centres unmarked) | 7.49
9 | O=C(NCC(c1ccco1)N1CCN(c2ccccc2)CC1)C(=O)NC1CCCC1 (centres unmarked) | 6.06
10 | COc1ccc([N+](=O)[O-])cc1C(=O)NCCOc1ccc(Cl)cc1 | 4.88
11 | Cc1cc(C)cc(N(C(=O)Cc2cccs2)C(C(=O)NC2CCCCC2)c2ccccn2)c1 (centres unmarked) | -18.4
12 | COc1cc(C(=O)NCCN=C2NS(=O)(=O)c3ccccc32)cc(OC)c1OC | 13.2
13 | Cc1ccc2ccc3ccc(C)nc3c2n1 | 10.3
14 | CC1(C2CC2)NC(=O)N(CC(=O)Nc2ccc(C(F)(F)F)cc2)C1=O (centres unmarked) | 4.62
15 | O=C(c1ccc(NS(=O)(=O)c2ccccc2)cc1)N1CCN(Cc2ccc3c(c2)OCO3)CC1 | 10.2
16 | O=C(c1ccc(F)cc1)c1ccc(CN2C(=O)c3ccccc3C2=O)o1 | 4.32
17 | COc1ccc(-c2nc3ccccc3c(=O)o2)cc1OC | 18
18 | Cc1cccc(OCC(=O)N2CCC3(CC2)CC(=O)c2ccccc2O3)c1 | -6.58
19 | CNCc1c(OCc2ccc(F)cc2)ccc2ccccc12.Cl | -2.06
20 | COc1ccc(CN(C)CC(=O)Nc2ccccc2C(=O)NC2CC2)cc1OC | -3.84
21 | CCOc1ccc(N/C(N)=N/c2nc(C)c(C)c(=O)[nH]2)cc1 | 8.39
22 | COc1ccc(C(=O)NNS(=O)(=O)c2ccccc2)cc1OC | 9.24

Row | SMILES | hERG current change (%, negative = inhibition) at 1uM [%]
23 | CN(C)S(=O)(=O)c1ccc(NC(=O)c2cc(F)c(F)cc2Cl)cc1 | -1.82
24 | COCc1ccc(C(=O)N2CCCC(Nc3ccc(C(C)C)cc3)C2)o1 (centres unmarked) | 3.15
25 | Cc1nc2ccccc2n1C(=O)c1ccccc1[N+](=O)[O-] | 3.81
26 | O=C(CCNS(=O)(=O)c1ccc(Br)cc1)NCc1ccc(F)cc1 | 1.29
27 | COCCCNC(=O)CSC1=Nc2ccccc2C2=NC(Cc3c[nH]c4ccccc34)C(=O)N12 (centres unmarked) | 9.24
28 | Cc1cc(C)cc(OCc2nnc(SCC(=O)OC3CCCCC3)o2)c1 | -0.111
29 | CCn1c(=O)n(CC)c2cc(N3CCCC3)c(NC(=O)c3ccccc3F)cc21 | 6.41
30 | COC(c1ccccc1)c1nnc(CCC(=O)N2CCN(Cc3cccs3)CC2)o1 (centres unmarked) | 11.8
31 | CCC(C)NC(=O)Cc1c(C)c2cc3c(cc2oc1=O)OC(C)(C)CC3 (centres unmarked) | 15.9
32 | CC(C)Nc1nc(Cl)nc(NCCOc2ccccc2)n1 | 10
33 | OC(C#CCCN1CCCCC1)(c1ccccc1)c1ccccc1 | 1.64
34 | CC(=O)OC1COC(N2CCc3cc(Br)c([N+](=O)[O-])cc32)C(OC(C)=O)C1OC(C)=O (centres unmarked) | 15.2
35 | O=C(O)Cc1ccc(NC(=O)C2CCCCC2C(=O)O)cc1 (centres unmarked) | 17.7
36 | COC(=O)c1ccc(C(=O)NC(=S)Nc2nc3c(s2)CC(C)CC3)cc1 (centres unmarked) | 4.92
37 | CCN(CC)CCCNC(=S)Nc1ccc(Br)cc1 | -8.09
38 | CCCCn1c(N)c(N(CCOC)C(=O)c2ccc(F)c(S(=O)(=O)N3CCOCC3)c2)c(=O)[nH]c1=O | 9.04
39 | CCOc1ccc(C(=O)Nc2cc(-c3nc4ccccc4[nH]3)ccc2C)cc1[N+](=O)[O-] | -6.65
40 | N#Cc1ccc(NC(=O)CN2CCCCCC2)cc1Cl | 0.805
41 | CCOc1nnnc2c1sc1nc(N3CCOCC3)c3c(c12)CCCC3 | 3.32
42 | COc1ccc(N(CC(=O)Nc2ccccc2C)S(=O)(=O)c2c(C)[nH]c(=O)[nH]c2=O)cc1 | 11.5
43 | CCCCN(C)CCNC(=O)C(=O)c1c(C)[nH]c2ccccc12 | 5.78
44 | C=CCn1c(SCC(=O)c2ccc(OC)cc2)nnc1C(C)NC(=O)c1cccs1 (centres unmarked) | -1.46
